# The supplement of paper PMC8285479
# Structures can show the parent of a compound that is named as a salt. ± gives the standard deviation of the averaged measurements. Whole data set: some 1,900 compounds, median “normalised cell viability (NPI; 0 = phenylarsine oxide control, 1 = DMSO control)” near 1, cut for the lowest 2% near 0.039. The list shows a part of the results.
# Test system: NCI-H1944
# Test: normalised cell viability (NPI; 0 = phenylarsine oxide control, 1 = DMSO control) (fraction of DMSO control); NCI-H1944 is a non-small cell lung cancer line; higher = more viable cells (less compound toxicity)
# Settings: 6 days
# [1] = glucocorticoid arm: hydrocortisone 2.75 uM co-treatment, compound 1 µM
# [2] = glucocorticoid arm: hydrocortisone 2.75 uM co-treatment, compound 5 µM
# [3] = glucocorticoid arm: hydrocortisone 2.75 uM pre-treated 2 days and continued, compound 1 µM
# [4] = glucocorticoid arm: hydrocortisone 2.75 uM pre-treated 2 days and continued, compound 5 µM
# [5] = glucocorticoid arm: vehicle, compound 1 µM
# [6] = glucocorticoid arm: vehicle, compound 5 µM
# 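Note: CTB read-out in 384-well plates, mean of triplicate wells, normalised per plate against 1 µM phenylarsine oxide and 0.1% DMSO, compounds added 24 h after seeding.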
Structure (SMILES),normalised cell viability [1],normalised cell viability [2],normalised cell viability [3],normalised cell viability [4],normalised cell viability [5],normalised cell viability [6]
CCC(=O)N1CCN(C(=O)c2ccccc2)CC1,1,0.995 ± 0.017,1 ± 0.014,0.995 ± 0.022,0.9923 ± 0.0068,0.998 ± 0.0027
CC(=O)c1ccc(S(=O)(=O)NC(=O)NC2CCCCC2)cc1 [Acetohexamide],0.984 ± 0.014,0.991 ± 0.0082,0.9927 ± 0.0071,0.976 ± 0.028,0.987 ± 0.0066,0.9673 ± 0.0068
CCSC(=N)N [S-Ethylisothiourea hydrobromide],1.01 ± 0.01,1.02 ± 0.01,1 ± 0.023,1.01 ± 0.022,0.985 ± 0.002,0.988 ± 0.0082
CNc1ncnc2c1ncn2[C@H]1C[C@H](OP(=O)(O)O)[C@@H](COP(=O)(O)O)O1,0.991 ± 0.0056,0.987 ± 0.029,1 ± 0.016,0.981 ± 0.027,0.996 ± 0.0061,0.9943 ± 0.0047
COc1ccc(CN(CCN(C)C)c2ccccn2)cc1 [Pyrilamine maleate],1.01 ± 0.016,0.988 ± 0.028,1.01 ± 0.011,1.06 ± 0.078,1.007 ± 0.0058,1.013 ± 0.0058
CCCNC(C)C(=O)Nc1ccccc1C (stereo unspecified) [Prilocaine hydrochloride],0.9977 ± 0.0025,1.01 ± 0.015,0.834 ± 0.3,0.991 ± 0.017,1.013 ± 0.0058,1.01 ± 0.011
CC(COc1ccccc1)N(CCCl)Cc1ccccc1 (stereo unspecified) [Phenoxybenzamine hydrochloride],1 ± 0.025,0.998 ± 0.021,1.01 ± 0.011,1.01,1.006 ± 0.0063,1.01
CC(COc1ccccc1)N(CCCl)Cc1ccccc1 (stereo unspecified) [Phenoxybenzamine HCl],1.01 ± 0.018,1.033 ± 0.0058,1.03 ± 0.025,1.05 ± 0.015,1.005 ± 0.0087,1.01
Nc1ncn([C@@H]2O[C@H](CO)[C@@H](O)[C@H]2O)c(=O)n1 [Azacitidine],1.03,1.11 ± 0.025,1 ± 0.037,0.952 ± 0.24,0.976 ± 0.011,0.903 ± 0.017
Nc1ncn([C@@H]2O[C@H](CO)[C@@H](O)[C@H]2O)c(=O)n1 [Azacitidine; 5-azacytidine],1.04 ± 0.026,1.11 ± 0.015,1.04 ± 0.01,1.1 ± 0.021,0.98 ± 0.017,0.766 ± 0.025
Nc1ncn([C@@H]2O[C@H](CO)[C@@H](O)[C@H]2O)c(=O)n1 [5-azacytidine],1.006 ± 0.0063,1.03,1.01 ± 0.018,1.08 ± 0.014,0.972 ± 0.015,0.8937 ± 0.006
O=C(Nc1ccc(OC(F)(F)F)cc1)c1sccc1NCc1ccnc2ccccc12,1.033 ± 0.0058,1.09 ± 0.03,1.027 ± 0.0058,1.05 ± 0.021,1.003 ± 0.0058,1.007 ± 0.0058
CCCCCCCCCCCCCCCCCCOP(=O)([O-])OC1CC[N+](C)(C)CC1 [Perifosine],1.01 ± 0.017,1.02 ± 0.018,1.005 ± 0.0087,1.027 ± 0.0058,1.003 ± 0.0058,0.999 ± 0.011
"CN(C)CCC(c1ccc(Cl)cc1)c1ccccn1 (single isomer, unassigned; (+)) [(+)-Chlorpheniramine maleate]",0.9827 ± 0.0045,0.997 ± 0.012,0.979 ± 0.004,1.005 ± 0.0071,0.968 ± 0.011,0.978 ± 0.003
O=C(N[C@@H](Cc1ccccc1)C(=O)CCl)OCc1ccccc1 [Z-L-Phe chloromethyl ketone],1.03 ± 0.01,0.028 ± 0.0044,1.02 ± 0.016,1.075 ± 0.0071,1.03 ± 0.01,0.149 ± 0.086
Cc1scc2c1N(C(=O)CN1CCN(C)CC1)c1ccccc1NC2=O [Telenzepine dihydrochloride],1 ± 0.015,1.02 ± 0.015,1.03 ± 0.026,1.004 ± 0.01,1.003 ± 0.0058,1
CC(COc1ccc(/C=C/c2ccccc2)cc1)[N+](C)(C)C (stereo unspecified),0.999 ± 0.019,0.91 ± 0.025,1.01 ± 0.029,1 ± 0.013,1.023 ± 0.0058,1.03 ± 0.011
Cn1c(=O)c2nc[nH]c2n(C)c1=O [Theophylline],1.001 ± 0.0085,1.01 ± 0.01,1.02 ± 0.021,0.9943 ± 0.0049,0.99 ± 0.0087,0.9907 ± 0.0038
CO[C@@]12[C@H](COC(N)=O)C3=C(C(=O)C(C)=C(N)C3=O)N1C[C@@H]1N[C@@H]12 [Mitomycin; Mitomycin C],1 ± 0.013,0.00117 ± 0.0012,1.017 ± 0.0058,0.0028 ± 0.00069,0.9803 ± 0.0055,0.000408 ± 0.00038
CC1=Nc2ccc(Cl)cc2S(=O)(=O)N1 [Diazoxide],0.994 ± 0.015,0.97 ± 0.019,1 ± 0.022,0.971 ± 0.015,0.9907 ± 0.0031,0.985 ± 0.0027
Cc1ccc(Cl)c(Nc2ccccc2C(=O)O)c1Cl [Meclofenamic acid sodium salt],0.986 ± 0.01,0.986 ± 0.022,0.9947 ± 0.0059,1.02 ± 0.086,0.9957 ± 0.0021,0.998 ± 0.011
CC(C)(Cc1ccc2ccccc2c1)NC[C@@H](O)COc1cccc(Cl)c1C#N,1.01,0.939 ± 0.011,1.017 ± 0.0058,0.954 ± 0.022,1.003 ± 0.0058,0.9797 ± 0.004
O=C1Nc2ccc(I)cc2C1=Cc1cc(Br)c(O)c(Br)c1,1.047 ± 0.0058,1.113 ± 0.0058,1.04 ± 0.01,1.08 ± 0.021,1.02 ± 0.01,1.043 ± 0.0058
CN(C)CCOc1ccc(/C(=C(/CCCl)c2ccccc2)c2ccccc2)cc1 [Toremifene Citrate],0.9127 ± 0.004,0.794 ± 0.022,0.954 ± 0.022,0.877 ± 0.036,0.963 ± 0.011,0.983 ± 0.007
CCCC(CCC)C(=O)NO [Valproic acid hydroxamate],1 ± 0.022,1.01 ± 0.022,1.01 ± 0.016,1.02 ± 0.016,0.9982 ± 0.0077,0.9988 ± 0.0092
"CCCn1c(=O)c2c(ncn2C)n(CCC)c1=O [1,3-Dipropyl-7-methylxanthine]",1.01 ± 0.013,0.999 ± 0.011,0.998 ± 0.011,0.998 ± 0.02,0.9897 ± 0.0038,0.9923 ± 0.005
